Test results from patent US11230543B2, “Biaryl monobactam compounds and methods of use thereof for the treatment of bacterial infections” (priority 2015, dated 2022).
Counter-ions that a name gives are not always drawn. The name of at least one read-out is uncertain.

Assays:
[1] = system: Escherichia coli expressing NDM-1 (CLB30016); assay: Antibiotic activity: growth inhibitory concentration (OD600), Escherichia coli CLB30016; assay type: cell-based; details: lowest concentration inhibiting 95% of bacterial growth; in the presence of β lactamase inhibitor Relebactam 4 μg/mL; 35±2° C. for 22 hours; tested range 100 μM to 0.098 μM
Procedure: (§1) Antibiotic Activity: Determination of Growth Inhibitory Concentration
(§2) The concentrations of compounds required to inhibit the growth of various strains of bacteria were determined in an assay that assessed bacterial growth by measuring optical density at 600 nm (OD600). The bacterial strains tested included the clinical strains Escherichia coli expressing NDM-1 (CLB30016), Klebsiella pneumoniae expressing KPC-1 (CL6569), Acinetobacter baumannii expressing TEM-1, AmpC, and Oxa-24/40 (CL6188) and Pseudomonas aeruginosa expressing AmpC (CL5701). All compounds were tested in the presence of a β lactamase inhibitor (BLi, Relebactam) in 384-well microplates. The clinical strains were stored as frozen single use stocks, thawed and diluted into 1.1× cation-adjusted Mueller-Hinton II broth to achieve approximately 2×10^5 CFU/mL. Test compounds were dissolved in DMSO and diluted 1:50 in the assay, resulting in a final concentration range of 100 μM to 0.098 μM. On the day of the assay, 1 μL of test compound was added to the plate followed by 4 μL of 50 μg/mL BLi in MOPS buffer and 45 μL of diluted bacteria. Plates were centrifuged at 1000 rpm for 30 seconds, shaken at approximately 800 rpm for 1 minute, and incubated at 35±2° C. for 22 hours. The concentration of BLi used in the assay was 4 μg/mL. At the end of the incubation, absorbance at 600 nm was determined using a spectrophotometer. Inhibition was quantitated by identifying the lowest concentration of test compound that was required to inhibit 95% of the growth of the bacteria. The results for Examples 1-126 are reported in Table I, expressed as the concentration of compound that inhibited 95% of bacterial growth (Minimum Inhibitory Threshold Concentration; MITC95).

[2] = system: Acinetobacter baumannii expressing TEM-1, AmpC, and Oxa-24/40 (CL6188); assay: Antibiotic activity: growth inhibitory concentration (OD600), Acinetobacter baumannii CL6188; assay type: cell-based; details: lowest concentration inhibiting 95% of bacterial growth; in the presence of β lactamase inhibitor Relebactam 4 μg/mL; 35±2° C. for 22 hours; tested range 100 μM to 0.098 μM
Procedure: as §1, §2

| SMILES | EC_CLB30016 MITC95 [1] | AB_CL6188 MITC95 [2] |
| --- | --- | --- |
| CCOC(=O)[C@H](COc1ccc(-c2cn(CCCN)[n+](C)c2)cc1)O/N=C(\C(=O)N[C@@H]1C(=O)N(OS(=O)(=O)[O-])C1(C)C)c1csc(N)n1 [Example 115, (S)-3-((Z)-2-((((S)-3-(4-(1-(3-aminopropyl)-2-methyl-1H-pyrazol-2-ium-4-yl)phenoxy)-1-ethoxy-1-oxopropan-2-yl)oxy)imino)-2-(2-aminothiazol-4-yl)acetamido)-2,2-dimethyl-4-oxoazetidin-1-yl sulfate] | 100 µM | 25 µM |
| CC1(C)[C@H](NC(=O)/C(=N\O[C@@H](COc2ccc(-c3cc(CN)n(CCCN)n3)cc2)C(=O)O)c2csc(N)n2)C(=O)N1OS(=O)(=O)O [Example 126, (S)-3-(4-(5-(Aminomethyl)-1-(3-aminopropyl)-1H-pyrazol-3-yl)phenoxy)-2-((((Z)-1-(2-aminothiazol-4-yl)-2-(((S)-2,2-dimethyl-4-oxo-1-(sulfooxy)azetidin-3-yl)amino)-2-oxoethylidene)amino)oxy)propanoic acid] | 3.125 µM | 6.25 µM |
| C[n+]1cc(-c2ccc(OC[C@H](O/N=C(\C(=O)N[C@@H]3C(=O)N(OS(=O)(=O)[O-])C3(C)C)c3csc(N)n3)C(=O)O)cc2F)ccc1NCCN [Example 68, (S)-3-((Z)-2-(((S)-2-(4-(6-((2-aminoethyl)amino)-1-methylpyridin-1-ium-3-yl)-3-fluorophenoxy)-1-carboxyethoxy)imino)-2-(2-aminothiazol-4-yl)acetamido)-2,2-dimethyl-4-oxoazetidin-1-yl sulfate] | 3.125 µM | 3.125 µM |
| C[n+]1cc(-c2ccc(OCCO/N=C(\C(=O)N[C@@H]3C(=O)N(OS(=O)(=O)O)C3(C)C)c3csc(N)n3)cc2)cn1CCCN [Example 4, (S,Z)-3-(2-((2-(4-(1-(3-aminopropyl)-2-methyl-1H-pyrazol-2-ium-4-yl)phenoxy)ethoxy)imino)-2-(2-aminothiazol-4-yl)acetamido)-2,2-dimethyl-4-oxoazetidin-1-yl sulfate] | 12.5 µM | 6.25 µM |
| Cn1c(-c2ccc(OC[C@H](O/N=C(\C(=O)N[C@@H]3C(=O)N(OS(=O)(=O)O)C3(C)C)c3csc(N)n3)C(=O)O)cc2)cn(CCCN)c1=NCCN (stereo in doubt) [Example 57, (S)-3-(4-((Z)-2-((2-aminoethyl)imino)-1-(3-aminopropyl)-3-methyl-2,3-dihydro-1H-imidazol-4-yl)phenoxy)-2-((((Z)-1-(2-aminothiazol-4-yl)-2-(((S)-2,2-dimethyl-4-oxo-1-(sulfooxy)azetidin-3-yl)amino)-2-oxoethylidene)amino)oxy)propanoic acid] | 3.125 µM | 3.125 µM |
| Cn1c(-c2ccc(OC[C@H](O/N=C(\C(=O)N[C@@H]3C(=O)N(OS(=O)(=O)O)C3(C)C)c3csc(N)n3)C(N)=O)cc2)cn(CCCN)c1=N [Example 114, (S)-3-((Z)-2-((((S)-1-amino-3-(4-(1-(3-aminopropyl)-2-imino-3-methyl-2,3-dihydro-1H-imidazol-4-yl)phenoxy)-1-oxopropan-2-yl)oxy)imino)-2-(2-aminothiazol-4-yl)acetamido)-2,2-dimethyl-4-oxoazetidin-1-yl sulfate] | 6.25 µM | 6.25 µM |
| CC1(C)[C@H](NC(=O)/C(=N\O[C@@H](COc2ccc(-c3ccnc(NCCCN)c3)cc2)C(=O)O)c2csc(N)n2)C(=O)N1OS(=O)(=O)O [Example 64, (S)-3-((Z)-2-(((S)-2-(4-(2-((3-aminopropyl)amino)pyridin-4-yl)phenoxy)-1-carboxyethoxy)imino)-2-(2-aminothiazol-4-yl)acetamido)-2,2-dimethyl-4-oxoazetidin-1-yl sulfate] | 12.5 µM | 50 µM |
| C[n+]1cc(-c2ccc(OC[C@](C)(O/N=C(\C(=O)N[C@@H]3C(=O)N(OS(=O)(=O)O)C3(C)C)c3csc(N)n3)C(=O)O)cc2)ccc1NCCN [Example 87, (S)-3-((Z)-2-((((S)-1-(4-(6-((2-aminoethyl)amino)-1-methylpyridin-1-ium-3-yl)phenoxy)-2-carboxypropan-2-yl)oxy)imino)-2-(2-aminothiazol-4-yl)acetamido)-2,2-dimethyl-4-oxoazetidin-1-yl sulfate] | 25 µM | 6.25 µM |
| C[n+]1ccc(-c2ccc(OC[C@H](O/N=C(\C(=O)N[C@@H]3C(=O)N(OS(=O)(=O)[O-])C3(C)C)c3csc(N)n3)C(=O)O)cc2)cc1NCCN [Example 62, (S)-3-((Z)-2-(((S)-2-(4-(2-((2-aminoethyl)amino)-1-methylpyridin-1-ium-4-yl)phenoxy)-1-carboxyethoxy)imino)-2-(2-aminothiazol-4-yl)acetamido)-2,2-dimethyl-4-oxoazetidin-1-yl sulfate] | 1.9 µM | 2.9 µM |
| CC1(C)[C@H](NC(=O)/C(=N\O[C@@](C)(COc2ccc(-n3cc[n+](CCCN)c3)nc2)C(=O)O)c2csc(N)n2)C(=O)N1OS(=O)(=O)[O-] [Example 113, (S)-3-((Z)-2-((((S)-1-((6-(3-(3-aminopropyl)-1H-imidazol-3-ium-1-yl)pyridin-3-yloxy)-2-carboxypropan-2-yl)oxy)imino)-2-(2-aminothiazol-4-yl)acetamido)-2,2-dimethyl-4-oxoazetidin-1-yl sulfate] | 25 µM | 12.5 µM |
| C[n+]1cc(-c2ccc(OC[C@H](O/N=C(\C(=O)N[C@@H]3C(=O)N(OS(=O)(=O)O)C3(C)C)c3csc(N)n3)C(=O)O)cc2)cn1CC(O)CN (stereo partly drawn) [Example 42, (3S)-3-((Z)-2-(((1S)-2-(4-(1-(3-amino-2-hydroxypropyl)-2-methyl-1H-pyrazol-2-ium-4-yl)phenoxy)-1-carboxyethoxy)imino)-2-(2-aminothiazol-4-yl)acetamido)-2,2-dimethyl-4-oxoazetidin-1-yl sulfate] | 3.125 µM | 1.563 µM |
| CC1(C)[C@H](NC(=O)/C(=N\O[C@@H](COc2ccc(-c3cn(CCCN)cn3)cc2)C(=O)O)c2csc(N)n2)C(=O)N1OS(=O)(=O)O [Example 10, (S)-3-(4-(1-(3-Aminopropyl)-1H-imidazol-4-yl)phenoxy)-2-((((Z)-1-(2-aminothiazol-4-yl)-2-(((S)-2,2-dimethyl-4-oxo-1-(sulfooxy)azetidin-3-yl)amino)-2-oxoethylidene)amino)oxy)propanoic acid] | 6.25 µM | 12.5 µM |
| CC1(C)[C@H](NC(=O)/C(=N\O[C@@H](COc2ccc(Nc3cc[n+](CCCN)cc3)nc2)C(=O)O)c2csc(N)n2)C(=O)N1OS(=O)(=O)O [Example 33, 1-(3-aminopropyl)-4-((5-((S)-2-((((Z)-1-(2-aminothiazol-4-yl)-2-(((S)-2,2-dimethyl-4-oxo-1-(sulfooxy)azetidin-3-yl)amino)-2-oxoethylidene)amino)oxy)-2-carboxyethoxy)pyridin-2-yl)amino)pyridin-1-ium 2,2,2-trifluoroacetate] | 6.25 µM | 3.125 µM |
| CC1(C)[C@H](NC(=O)/C(=N\O[C@@H](COc2ccc(-c3ccc(NCCN)[n+](CC4CNC4)c3)cc2)C(=O)O)c2csc(N)n2)C(=O)N1OS(=O)(=O)[O-] [Example 98, (S)-3-((Z)-2-(((S)-2-(4-(6-((2-aminoethyl)amino)-1-(azetidin-3-ylmethyl)pyridin-1-ium-3-yl)phenoxy)-1-carboxyethoxy)imino)-2-(2-aminothiazol-4-yl)acetamido)-2,2-dimethyl-4-oxoazetidin-1-yl sulfate] | 1.563 µM | 1.563 µM |
| C[C@@H]1[C@H](NC(=O)/C(=N\O[C@@H](COc2ccc(-c3cn(CCCN)[n+](C)c3)cc2)C(=O)O)c2csc(N)n2)C(=O)N1S(=O)(=O)[O-] [Example 9, (2R,3S)-3-((Z)-2-(((S)-2-(4-(1-(3-aminopropyl)-2-methyl-1H-pyrazol-2-ium-4-yl)phenoxy)-1-carboxyethoxy)imino)-2-(2-aminothiazol-4-yl)acetamido)-2-methyl-4-oxoazetidine-1-sulfonate] | 12.5 µM | 12.5 µM |
| C[n+]1cc(-c2ccc(OC[C@H](O/N=C(\C(=O)N[C@@H]3C(=O)N(OS(=O)(=O)[O-])C3(C)C)c3csc(N)n3)C(=O)O)cc2Cl)cn1CCCN [Example 38, (S)-3-((Z)-2-(((S)-2-(4-(1-(3-aminopropyl)-2-methyl-1H-pyrazol-2-ium-4-yl)-3-chlorophenoxy)-1-carboxyethoxy)imino)-2-(2-aminothiazol-4-yl)acetamido)-2,2-dimethyl-4-oxoazetidin-1-yl sulfate] | 6.25 µM | 6.25 µM |
